# Data reported in the supplement of paper PMC10037445.
# The full ranking holds about 2,900 compounds; the median of “IRF Lucia reporter activity, fold change vs agonist alone” is about 0.9, and the highest 2% start at about 2.8. Some of the results follow.
# What was measured:
# RAW-Dual [1] = assay: IRF Lucia reporter activity, fold change vs agonist alone; cytotoxicity flag (confluency mask): not cytotoxic; higher = enhanced IRF activity
# In short: (§1)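 RAW-Dual macrophages were seeded in DMEM at 50,000 cells/well in 384-well plates, given 50 nL of library stock by pin tool, and given a PRR agonist 1 h later. Plates were held at 37 °C, 5% CO2 for 20 hours, after which supernatant was read for IRF by QuantiLuc luminescence and for NF-κB by QuantiBlue absorbance at 620 nm. Reporter activity is expressed as fold change over wells that received agonist alone. A well was called cytotoxic when IncuCyte confluency fell below 70% of agonist controls in both mask sets.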
# RAW-Dual [2] = assay: IRF Lucia reporter activity, fold change vs agonist alone; higher = enhanced IRF activity; settings: library stock concentration (final ~1000-fold dilution): 10 mM, agonist: MPLA (TLR4) […]
# In short: as §1
# RAW-Dual [3] = assay: IRF Lucia reporter activity, fold change vs agonist alone; cytotoxicity flag (confluency mask): cytotoxic (confluency <70% of control); higher = enhanced IRF activity
# In short: as §1
# [4] = agonist: 3'3'-cGAMP (STING) 10 ug/mL
# [5] = cytotoxicity flag (confluency mask): not cytotoxic
smiles,measurement,setting,value
COc1ccnc(C[S+]([O-])c2nc3cc(OC(F)F)ccc3[nH]2)c1OC (stereo not given) (library stock concentration (final ~1000-fold dilution): 10 mM),IRF Lucia reporter activity,RAW-Dual [1]; [4],1.15
same,IRF Lucia reporter activity,RAW-Dual [1]; agonist: LPS (TLR4) 0.1 ug/mL,1.26
COc1ccnc(C[S+]([O-])c2nc3cc(OC(F)F)ccc3[nH]2)c1OC (stereo not given),IRF Lucia reporter activity,RAW-Dual [2]; [5],1.19
Cc1cc(C)c(S(=O)(=O)n2cc(C)cc2C)c(C)c1 (library stock concentration (final ~1000-fold dilution): 10 mM),IRF Lucia reporter activity,RAW-Dual [1]; [4],1.06
same,IRF Lucia reporter activity,RAW-Dual [1]; agonist: LPS (TLR4) 0.1 ug/mL,1.47
Cc1cc(C)c(S(=O)(=O)n2cc(C)cc2C)c(C)c1,IRF Lucia reporter activity,RAW-Dual [2]; [5],1.09
Cc1[nH]c2ccccc2c1CCNCc1ccc(/C=C/C(=O)NO)cc1,IRF Lucia reporter activity,RAW-Dual [2]; cytotoxicity flag (confluency mask): cytotoxic (confluency <70% of control),0.35
Cc1[nH]c2ccccc2c1CCNCc1ccc(/C=C/C(=O)NO)cc1 (library stock concentration (final ~1000-fold dilution): 10 mM),IRF Lucia reporter activity,RAW-Dual [3]; [4],0.0425
same,IRF Lucia reporter activity,RAW-Dual [3]; agonist: LPS (TLR4) 0.1 ug/mL,0.775
C=CC(=O)Nc1ccc(CN2C(=O)N(c3cc(OC)cc(OC)c3)Cc3cnc(Nc4ccc(N5CCN(C)CC5)cc4)nc32)cc1 (library stock concentration (final ~1000-fold dilution): 10 mM),IRF Lucia reporter activity,RAW-Dual [1]; [4],0.461
same,IRF Lucia reporter activity,RAW-Dual [1]; agonist: LPS (TLR4) 0.1 ug/mL,0.265
O=C(O)[C@H]1O[C@@H](Oc2cc3oc(-c4ccccc4)cc(=O)c3c(O)c2O)[C@H](O)[C@@H](O)[C@@H]1O (library stock concentration (final ~1000-fold dilution): 10 mM),IRF Lucia reporter activity,RAW-Dual [1]; [4],0.872
same,IRF Lucia reporter activity,RAW-Dual [1]; agonist: LPS (TLR4) 0.1 ug/mL,1.25
Cn1cc(-c2ccncc2)c(-c2ccc(OCc3ccc4ccccc4n3)cc2)n1 (library stock concentration (final ~1000-fold dilution): 10 mM),IRF Lucia reporter activity,RAW-Dual [1]; [4],0.494
same,IRF Lucia reporter activity,RAW-Dual [1]; agonist: LPS (TLR4) 0.1 ug/mL,0.793
Cn1cc(-c2ccncc2)c(-c2ccc(OCc3ccc4ccccc4n3)cc2)n1,IRF Lucia reporter activity,RAW-Dual [2]; [5],0.795
CC(C)OC(=O)C(C)NP(=O)(OCC1OC(n2ccc(=O)[nH]c2=O)C(C)(F)C1O)Oc1ccccc1 (stereo not given),IRF Lucia reporter activity,RAW-Dual [2]; [5],1.04
CC(C)OC(=O)C(C)NP(=O)(OCC1OC(n2ccc(=O)[nH]c2=O)C(C)(F)C1O)Oc1ccccc1 (stereo not given) (library stock concentration (final ~1000-fold dilution): 10 mM),IRF Lucia reporter activity,RAW-Dual [1]; [4],1.04
same,IRF Lucia reporter activity,RAW-Dual [1]; agonist: LPS (TLR4) 0.1 ug/mL,0.731
O=C(/C=C/c1cccnc1)c1ccncc1 (library stock concentration (final ~1000-fold dilution): 10 mM),IRF Lucia reporter activity,RAW-Dual [1]; [4],0.859
same,IRF Lucia reporter activity,RAW-Dual [1]; agonist: LPS (TLR4) 0.1 ug/mL,1.27
O=C1C(CCC(O)c2ccc(F)cc2)C(c2ccc(O)cc2)N1c1ccc(F)cc1 (stereo not given) (library stock concentration (final ~1000-fold dilution): 10 mM),IRF Lucia reporter activity,RAW-Dual [1]; [4],1.17
same,IRF Lucia reporter activity,RAW-Dual [1]; agonist: LPS (TLR4) 0.1 ug/mL,1.09
O=C1C(CCC(O)c2ccc(F)cc2)C(c2ccc(O)cc2)N1c1ccc(F)cc1 (stereo not given),IRF Lucia reporter activity,RAW-Dual [2]; [5],1.19
OCC1=CC(O)C2C=COC(OC3OC(CO)C(O)C(O)C3O)C12 (stereo not given) (library stock concentration (final ~1000-fold dilution): 10 mM),IRF Lucia reporter activity,RAW-Dual [1]; [4],1.05
same,IRF Lucia reporter activity,RAW-Dual [1]; agonist: LPS (TLR4) 0.1 ug/mL,1.37
OCC1=CC(O)C2C=COC(OC3OC(CO)C(O)C(O)C3O)C12 (stereo not given),IRF Lucia reporter activity,RAW-Dual [2]; [5],1.01
c1cncc(CN2CCC(n3ncc4c(N5CCOCC5)nc(-c5ccc6[nH]ccc6c5)nc43)CC2)c1 (library stock concentration (final ~1000-fold dilution): 10 mM),IRF Lucia reporter activity,RAW-Dual [1]; [4],0.967
same,IRF Lucia reporter activity,RAW-Dual [1]; agonist: LPS (TLR4) 0.1 ug/mL,0.869
c1cncc(CN2CCC(n3ncc4c(N5CCOCC5)nc(-c5ccc6[nH]ccc6c5)nc43)CC2)c1,IRF Lucia reporter activity,RAW-Dual [2]; [5],1.05
COC(=O)CC(O)(CCCC(C)(C)O)C(=O)OC1C(OC)=CC23CCCN2CCc2cc4c(cc2C13)OCO4 (stereo not given) (library stock concentration (final ~1000-fold dilution): 10 mM),IRF Lucia reporter activity,RAW-Dual [3]; [4],0.0146
same,IRF Lucia reporter activity,RAW-Dual [3]; agonist: LPS (TLR4) 0.1 ug/mL,0.0202
COC1CCN(C(=O)c2cc(Cc3n[nH]c(=O)c4ccccc34)ccc2F)CC1,IRF Lucia reporter activity,RAW-Dual [2]; [5],0.983
COC1CCN(C(=O)c2cc(Cc3n[nH]c(=O)c4ccccc34)ccc2F)CC1 (library stock concentration (final ~1000-fold dilution): 10 mM),IRF Lucia reporter activity,RAW-Dual [1]; [4],1.03
same,IRF Lucia reporter activity,RAW-Dual [1]; agonist: LPS (TLR4) 0.1 ug/mL,0.722
COc1ccc(C[C@@H]2c3cc(Oc4cc(C[C@@H]5c6cc(OC)c(OC)cc6CCN5C)ccc4O)c(OC)cc3CCN2C)cc1 (library stock concentration (final ~1000-fold dilution): 10 mM),IRF Lucia reporter activity,RAW-Dual [1]; [4],0.0517
same,IRF Lucia reporter activity,RAW-Dual [1]; agonist: LPS (TLR4) 0.1 ug/mL,0.991
CC(C)(c1ccc(OCC(O)CO)cc1)c1ccc(OCC(O)CCl)cc1 (stereo not given) (library stock concentration (final ~1000-fold dilution): 10 mM),IRF Lucia reporter activity,RAW-Dual [1]; [4],0.998
same,IRF Lucia reporter activity,RAW-Dual [1]; agonist: LPS (TLR4) 0.1 ug/mL,1.04
O=C(Nc1ccc(Cl)cc1)c1cc2ccccc2cc1OP(=O)(O)O (library stock concentration (final ~1000-fold dilution): 10 mM),IRF Lucia reporter activity,RAW-Dual [1]; [4],1.19
same,IRF Lucia reporter activity,RAW-Dual [1]; agonist: LPS (TLR4) 0.1 ug/mL,1.12
CCOC(=O)c1[nH]c2cc(Cl)ccc2c1C(C(=O)NC(C)(C)C)N(C=O)Cc1ccc(Cl)cc1 (stereo not given) (library stock concentration (final ~1000-fold dilution): 10 mM),IRF Lucia reporter activity,RAW-Dual [1]; [4],0.962
same,IRF Lucia reporter activity,RAW-Dual [1]; agonist: LPS (TLR4) 0.1 ug/mL,1.36
CCOC(=O)c1[nH]c2cc(Cl)ccc2c1C(C(=O)NC(C)(C)C)N(C=O)Cc1ccc(Cl)cc1 (stereo not given),IRF Lucia reporter activity,RAW-Dual [2]; [5],1.18
CCCCN1CCCCC1C(=O)Nc1c(C)cccc1C (stereo not given) (library stock concentration (final ~1000-fold dilution): 10 mM),IRF Lucia reporter activity,RAW-Dual [1]; [4],0.972
same,IRF Lucia reporter activity,RAW-Dual [1]; agonist: LPS (TLR4) 0.1 ug/mL,1.37
CCCCN1CCCCC1C(=O)Nc1c(C)cccc1C (stereo not given),IRF Lucia reporter activity,RAW-Dual [2]; [5],1.19
CC(=O)OC1(C(C)=O)CCC2C3C=C(C)C4=CC(=O)CCC4(C)C3CCC21C (stereo not given),IRF Lucia reporter activity,RAW-Dual [2]; [5],1
CC(=O)OC1(C(C)=O)CCC2C3C=C(C)C4=CC(=O)CCC4(C)C3CCC21C (stereo not given) (library stock concentration (final ~1000-fold dilution): 10 mM),IRF Lucia reporter activity,RAW-Dual [1]; [4],1.09
same,IRF Lucia reporter activity,RAW-Dual [1]; agonist: LPS (TLR4) 0.1 ug/mL,0.962
CCCCc1ccc(O)cc1O,IRF Lucia reporter activity,RAW-Dual [2]; [5],1.22
CCCCc1ccc(O)cc1O (library stock concentration (final ~1000-fold dilution): 10 mM),IRF Lucia reporter activity,RAW-Dual [1]; [4],0.96
same,IRF Lucia reporter activity,RAW-Dual [1]; agonist: LPS (TLR4) 0.1 ug/mL,1.45
CCOP(=O)(OCC)C(=Cc1cc(C(C)(C)C)c(O)c(C(C)(C)C)c1)P(=O)(OCC)OCC (library stock concentration (final ~1000-fold dilution): 10 mM),IRF Lucia reporter activity,RAW-Dual [1]; [4],0.416
same,IRF Lucia reporter activity,RAW-Dual [1]; agonist: LPS (TLR4) 0.1 ug/mL,1.28
